Out of some 370,000 compounds screened, about 150 (0.041%) were called active. Inconclusive results, whose numbers are uncertain, are shown with a selection of clear calls. Calls come from the whole dose curve; as a rule, active = well fitted inhibition curve with a large enough effect; inconclusive = small, poorly fitted or top-dose-only effect; inactive = flat fitted curve, though single readings scatter. Potencies of inconclusive entries are left out as doubtful fits.
What follows are molecules tested against Beta-lactamase (Escherichia coli (strain K12)) (UniProt P00811) (assay: qHTS Inhibitors of AmpC Beta-Lactamase (assay with detergent)). Details: AmpC hydrolysis of nitrocefin, absorbance 480 nm, 0.01% Triton; series mostly up to 114 µM.
Chain of UniProt P00811 (P00811 whole entry, looked up): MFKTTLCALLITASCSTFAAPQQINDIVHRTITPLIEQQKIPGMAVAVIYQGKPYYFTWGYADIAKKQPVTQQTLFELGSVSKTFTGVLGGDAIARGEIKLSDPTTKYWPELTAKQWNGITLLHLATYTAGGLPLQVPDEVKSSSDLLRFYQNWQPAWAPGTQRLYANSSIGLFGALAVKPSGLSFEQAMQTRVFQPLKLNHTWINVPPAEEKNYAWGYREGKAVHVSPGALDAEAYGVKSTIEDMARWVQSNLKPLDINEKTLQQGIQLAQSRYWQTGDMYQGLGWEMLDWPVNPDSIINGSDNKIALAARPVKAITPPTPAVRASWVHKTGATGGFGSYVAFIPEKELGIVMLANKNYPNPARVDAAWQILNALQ
Procedure, shortened: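 AmpC (5.3 nM in the dispensed reagent) in 20 mM phosphate pH 7.0 with 0.01% (detergent screen) or 0.0001% Triton X-100 was preincubated with compounds for 15 min at room temperature. Nitrocefin was then added from an 800 uM solution, and hydrolysis was followed at 480 nm.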
For `O=C1CNC(=O)N1CC(=O)N1CCCc2ccccc21`, the Potency was inconclusive [inhibitor, full curve].
For `Cc1cc(C)c(S(=O)(=O)Nc2ccc(O)c(Sc3ncn[nH]3)c2)cc1C`, the Potency was inconclusive [inhibitor, partial curve, poor fit].
With `CCCCn1nc2cc(C(=O)N[C@H](C)C3CCCCC3)ccc2c1OCC` the Potency was “inactive”.
`CCN(CC)CCNC(=O)C1CCC(=O)N(c2ccc(OC)cc2)C1c1ccc(F)cc1` (stereo not given) was tested, and the Potency was “inactive”.
In the case of `COc1ccc(NC(=O)c2nc3nc(C)cc(C(F)F)n3n2)cc1OC`, the Potency is reported as inconclusive [inhibitor, partial curve].
With `CC1CCCC(C)N1/N=C/c1ccc(C#N)cc1` (stereo not given) the Potency was “inactive”.
With `COc1ccc(Cl)cc1NC(=O)Cc1c(F)cccc1Cl` the Potency was inconclusive [inhibitor, partial curve, poor fit].
For `CC(=O)c1ccc(S(=O)(=O)Nc2ccc(C(=O)NCC(c3cccs3)N3CCOCC3)cc2)cc1` (stereo not given), the Potency was inconclusive [inhibitor, single point].
In the case of `COc1cc(/C=N/Nc2ccc(C)cc2)cc(Br)c1O`, the Potency is reported as inconclusive [inhibitor, single point].
In the case of `O=C(Nc1ccc(-c2nc3cccnc3s2)cc1)c1ccco1`, the Potency is reported as inconclusive [inhibitor, full curve].
For `O=C(CCN1C(=O)c2ccccc2C1=O)N1CCN(c2ccccc2)CC1`, the Potency was inconclusive [inhibitor, full curve, poor fit].
With `CN(Cc1ccccc1)S(=O)(=O)c1ccc2c(c1)CCC(=O)N2` the Potency was inconclusive [inhibitor, full curve, poor fit].
With `COc1ccc(/C=C2\SC(N)=NC2=O)cc1Cl` the Potency was inconclusive [inhibitor, single point].
For `COc1cccc(CC(NC(C)=O)C(=O)NC2CCN(C(=O)C3CC3)CC2)c1OC` (stereo not given), the Potency was “inactive”.
In the case of `O=C(NCCNC(=O)c1ccccn1)c1cccc(F)c1`, the Potency is reported as inconclusive [inhibitor, partial curve].
For `CC(=O)N(c1ccc2oc(=O)sc2c1)S(=O)(=O)c1ccc(C(=O)O)cc1`, the Potency was inconclusive [inhibitor, partial curve, poor fit].
With `COc1ccc(/C=C(\C#N)C(=O)Nc2cc(S(=O)(=O)N3CCOCC3)ccc2N2CCCC2)cc1` the Potency was “inactive”.
For `COc1ccc(C(=O)CCC(=O)N2CCN(c3ccc([N+](=O)[O-])cc3)CC2)cc1`, the Potency was inconclusive [inhibitor, partial curve, poor fit].
In the case of `Brc1ccc(OCCCOc2cccc3cccnc23)cc1`, the Potency is reported as inconclusive [inhibitor, full curve].
In the case of `COc1cccc(C(=O)NCCSCc2c(F)cccc2Cl)c1`, the Potency is reported as inconclusive [inhibitor, full curve, poor fit].
`Cc1ccc(Cn2c(C(=O)O)c(CNCc3cccs3)c3ccc(C)cc32)cc1` was tested, and the Potency was “inactive”.
With `COc1cc(/C=C/C(=O)c2ccc(F)cc2)cc(OC)c1OC` the Potency was “inactive”.
With `CC(C)(C)Cc1nnc(NS(=O)(=O)c2ccc(F)cc2)s1` the Potency was inconclusive [inhibitor, full curve].
With `COc1ccc(NC(=O)c2ccc3c(c2)nnn3C2CCCC2)cc1Cl` the Potency was “inactive”.
For `CCc1ccc2oc(-c3cc(N)cc(C)c3O)nc2c1`, the Potency was inconclusive [inhibitor, full curve, poor fit].
With `COc1cc(C(=O)Nc2nnc(SC)s2)c([N+](=O)[O-])cc1OC` the Potency was inconclusive [inhibitor, full curve].
In the case of `Cc1c(NC(=O)OCCNC(=O)COc2c(Cl)cccc2Cl)sc(=S)n1C`, the Potency is reported as “inactive”.
With `O=C(NCCc1ccccc1F)N[C@@H](Cc1ccccc1)C(=O)O` the Potency was “inactive”.
With `CCOc1ccccc1NC(=O)CS(=O)(=O)c1cn(CC(=O)N2CCOCC2)c2ccccc12` the Potency was inconclusive [inhibitor, single point].
In the case of `O=C(/C=C/c1ccc(Cl)cc1Cl)N1CCN(c2ccc([N+](=O)[O-])c(N3CCOCC3)c2)CC1`, the Potency is reported as “inactive”.
For `CCCc1cc(C(=O)OC)c(NC(=O)c2cc(C)on2)s1`, the Potency was “inactive”.
For `CCOC(=O)c1c(S(=O)(=O)Nc2ccccn2)c(C)n(C)c1C`, the Potency was inconclusive [inhibitor, full curve, poor fit].
For `O=C(Nc1ccc(-c2nnc3n2CCCCC3)cc1)c1cc2ccccc2o1`, the Potency was “inactive”.
`c1ccc(Cc2nc3ccccc3[nH]2)cc1` was tested, and the Potency was inconclusive [inhibitor, partial curve].
`Nn1c(SCC(=O)NCCc2ccc(F)cc2)nnc1C1CCCCC1` was tested, and the Potency was inconclusive [inhibitor, full curve, poor fit].
With `CCNC(=S)N=Nc1c(O)[nH]c2ccc([N+](=O)[O-])cc12` the Potency was “inactive”.
In the case of `CCCCC(=O)Nc1ccc(NC(=O)c2ccc([N+](=O)[O-])cc2Cl)cc1OC`, the Potency is reported as inconclusive [inhibitor, full curve, poor fit].
With `CCn1cc(Cl)c(C(=O)NNC(=O)CCn2cc([N+](=O)[O-])cn2)n1` the Potency was inconclusive [inhibitor, full curve, poor fit].
`CC1(C)CC2(C)Nc3ccccc3N2C(=S)N1` (stereo not given) was tested, and the Potency was inconclusive [inhibitor, full curve].
In the case of `Cc1cc(C)c(C#N)c(SCCS(=O)(=O)c2ccc(C(C)(C)C)cc2)n1`, the Potency is reported as “inactive”.
In the case of `Cc1cccc2cc(CN(Cc3ccco3)C(=O)c3ccco3)c(=O)[nH]c12`, the Potency is reported as inconclusive [inhibitor, full curve, poor fit].
In the case of `Clc1ccccc1-c1csc(Nc2cccnc2)n1`, the Potency is reported as “inactive”.
`CC1=CC(C)(C)N=C(NC#N)N1` was tested, and the Potency was inconclusive [inhibitor, single point].
`CC1(C)Cc2c(c(-c3ccco3)nc3sc4c(NCCN5CCOCC5)ncnc4c23)CO1` was tested, and the Potency was “inactive”.
`COc1cccc(/C=N/NC(=O)CNC(=O)COc2cccc(C)c2)c1O` was tested, and the Potency was “inactive”.
With `COC(=O)c1ccc(N2C(=O)CC(SCCN)C2=O)cc1` (stereo not given) the Potency was inconclusive [inhibitor, full curve].
In the case of `Cc1ccc2nc(NC(=O)CCn3c(=O)sc4ccccc43)sc2c1`, the Potency is reported as inconclusive [inhibitor, full curve, poor fit].
In the case of `Cc1ccc(Oc2ccc(NC(=O)Cn3ccsc3=N)cc2)cc1`, the Potency is reported as “inactive”.
For `CCCc1cc(C(=O)Nc2cc(Br)ccc2O)no1`, the Potency was inconclusive [inhibitor, full curve, poor fit].
With `Cc1ccc(CNC(=O)C2CCC(CNc3nc(=S)[nH]c4ccccc34)CC2)cc1` (stereo not given) the Potency was inconclusive [inhibitor, single point].
`Oc1c(Br)cc(Br)cc1C=Nc1ccc2[nH]ncc2c1` was tested, and the Potency was inconclusive [inhibitor, partial curve].
In the case of `O=C(Nc1cccc(F)c1)c1ccc(-c2ccccc2C(F)(F)F)o1`, the Potency is reported as inconclusive [inhibitor, full curve].
For `COc1ccc(NS(=O)(=O)c2ccc3oc(Nc4ccc5c(c4)OCCO5)nc3c2)cc1`, the Potency was inconclusive [inhibitor, full curve, poor fit].
For `O=C(CSc1nnc(-c2cnccn2)n1Cc1ccco1)c1ccc2ccccc2c1`, the Potency was inconclusive [inhibitor, full curve, poor fit].
In the case of `Cc1cc(NC(=O)CSc2nc(C(C)C)nc3sc(C)c(C)c23)no1`, the Potency is reported as inconclusive [inhibitor, full curve, poor fit].
In the case of `C=CCSc1nc(=O)n2cccc(C)c2n1`, the Potency is reported as inconclusive [inhibitor, full curve, poor fit].
For `C=CCOC(=O)C1=C(C)OC(N)=C(C#N)C1c1ccoc1` (stereo not given), the Potency was inconclusive [inhibitor, partial curve].
With `COc1cccc(C(=O)O/N=C(\C)c2cnccn2)c1` the Potency was “inactive”.
In the case of `COc1ccc(C2=NCCNC(C(F)(F)F)=C2)cc1`, the Potency is reported as inconclusive [inhibitor, full curve].
`O=S(=O)([O-])CCC[N+]1(CC#Cc2ccccc2)CCCCC1` was tested, and the Potency was inconclusive [inhibitor, single point].
`O=C(c1cc2ccccc2o1)N1CCN=C1SCc1cccc(F)c1` was tested, and the Potency was inconclusive [inhibitor, partial curve, poor fit].
For `Cn1cccc1-c1nc2ccc(NC(=O)c3ccco3)cc2[nH]1`, the Potency was inconclusive [inhibitor, single point].
`Cc1cc2ccccc2n1CCNC(=O)C(C)C` was tested, and the Potency was inconclusive [inhibitor, full curve].
For `Cn1c(NC(=O)c2ccc(C(C)(C)C)cc2)cc(=O)n(C)c1=O`, the Potency was inconclusive [inhibitor, full curve, poor fit].
For `CC(=O)OCC(OC(C)=O)C(OC(C)=O)C(OC(C)=O)C(=O)Nc1ccc(C)cc1C` (stereo not given), the Potency was inconclusive [inhibitor, partial curve, poor fit].
In the case of `CCSc1ncc(Cl)c(C(=O)Nc2ccc(S(N)(=O)=O)cc2)n1`, the Potency is reported as “inactive”.
For `Cc1nc(-c2c(-c3ccc(O)cc3O)noc2C(F)(F)F)cs1`, the Potency was “inactive”.
For `Cc1c([N+](=O)[O-])nnn1-c1cc(Cl)cc(Cl)c1`, the Potency was inconclusive [inhibitor, full curve].
In the case of `C=CCn1c(SC(C)C(=O)Nc2ccc(F)c(F)c2F)nnc1C1CC1` (stereo not given), the Potency is reported as “inactive”.
With `Nc1ccc2oc(=O)c3ccccc3c2c1` the Potency was inconclusive [inhibitor, single point].
Note: nearly all actives have a fitted effect of over 25% in size.
Potency is the fitted concentration of half-maximal effect; tags give direction and shape of the fitted curve.
